Assay results from PMC7819943, “Rice protein-binding microarrays: a tool to detect cis-acting elements near promoter regions in rice”.
The other results are listed elsewhere or left out.

Target: T1, OsWOX13 (Oryza sativa, UniProt Q5QMM3 1-267)
T1 sequence: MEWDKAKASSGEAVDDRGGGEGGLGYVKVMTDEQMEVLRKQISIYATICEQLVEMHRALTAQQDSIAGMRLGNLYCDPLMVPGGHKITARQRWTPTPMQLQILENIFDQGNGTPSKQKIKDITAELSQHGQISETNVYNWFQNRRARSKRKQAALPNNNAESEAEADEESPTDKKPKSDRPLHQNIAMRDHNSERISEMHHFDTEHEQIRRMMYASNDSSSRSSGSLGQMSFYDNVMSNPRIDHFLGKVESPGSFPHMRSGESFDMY
Experiment: protein-binding microarray (RPBM); PBS, 2% BSA, 51.3 ng/ul salmon testes DNA, 50 uM zinc acetate, 200 nM TF, 25 C, 1 h; high values mean tight binding
Settings: protein: recombinant; tags: N-terminal polyhistidine and DsRed monomer fusion (pET32a); label: CyDye5-dUTP incorporated in the synthesized complementary strand; 3' TTTTT single-stranded linker to array surface; dsDNA, one strand shown
Outline: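 Transcription factors were each fused at the N-terminus to a polyhistidine tag plus DsRed and expressed in E. coli BL21-CodonPlus before Ni–NTA purification. Binding to a double-stranded custom Agilent array was carried out with 200 nM protein at 25 °C for 1 h in PBS, 2% BSA, salmon testes DNA and 50 µM zinc acetate. The binding signal is per-feature fluorescence intensity, in arbitrary units, on an Axon 4000B scanner.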

Sequence | binding signal
CCTTACAATATTAATTAAGCTGTATAAGTAGTTTACTACACGGAGTCACCTAGTGCAG | 3380 fluorescence intensity (a.u.)
ACAGCTAATTAAGCAATTTAATTTTGTCACCACAATTTGCCGGAGTCACCTAGTGCAG | 50200 fluorescence intensity (a.u.)
ATATATTTTAGACAGACGAGCATATATGGACAGGCAACGGCGGAGTCACCTAGTGCAG | 5340 fluorescence intensity (a.u.)
GAAAATTGCTGATGATATACATCAATGTGGCTGCCATGGTCGGAGTCACCTAGTGCAG | 11100 fluorescence intensity (a.u.)
ATATACATCATCAGTACTCTAATTGAAATATATGATCCTACGGAGTCACCTAGTGCAG | 13100 fluorescence intensity (a.u.)
TTGCCAAATTTAAATTTTAAACTTGATTTTAAGTTTTAGTCGGAGTCACCTAGTGCAG | 23500 fluorescence intensity (a.u.)
ATAATTAGTTAATACTTCCATCAAGGAGTAATAAAGTCAGCGGAGTCACCTAGTGCAG | 11300 fluorescence intensity (a.u.)
AGAACATTAAGAAAACTTAATTGCCTAGACTTGTATGATGCGGAGTCACCTAGTGCAG | 6380 fluorescence intensity (a.u.)
ATGATTGCTGCGTCCCGGGAAAAGAGGGGCAAAAGCGTACCGGAGTCACCTAGTGCAG | 7680 fluorescence intensity (a.u.)
CTCACCAAATTGGCAAACTCATTGAGAGACTCGATCTTTGCGGAGTCACCTAGTGCAG | 19100 fluorescence intensity (a.u.)
TTGAAATGGAGGGAGTAATTACGGCGTACATTTCCCTCTCCGGAGTCACCTAGTGCAG | 4780 fluorescence intensity (a.u.)
AAAATCAAAACAATCACGAGATTAGAAGCATCTTTTAGTACGGAGTCACCTAGTGCAG | 8560 fluorescence intensity (a.u.)
CCCCTGACATCAATCGTCGCACCATCCATTCGATCGGTTTCGGAGTCACCTAGTGCAG | 4720 fluorescence intensity (a.u.)
AGTAAATTGGAGCTTACTGCCCTGCCATGAATGCCTGTTTCGGAGTCACCTAGTGCAG | 29900 fluorescence intensity (a.u.)
ATATTTAATTATTACGAACACAACGGTATAATCGGATTGTCGGAGTCACCTAGTGCAG | 23400 fluorescence intensity (a.u.)
GAAATTGAGTATATAACTAATTCAAATGAGTATGAAACTTCGGAGTCACCTAGTGCAG | 7250 fluorescence intensity (a.u.)
TTCCTCTTATGATTGATTTGAAGATGCCCTTATCCATATTCGGAGTCACCTAGTGCAG | 26700 fluorescence intensity (a.u.)
TAGGTTGATGCAAATTGAAAATATATGTTGCGAGCGGCGGCGGAGTCACCTAGTGCAG | 6430 fluorescence intensity (a.u.)
AAAACTTTTATATGACTGTTTAAATTACATGTATACACCTCGGAGTCACCTAGTGCAG | 6500 fluorescence intensity (a.u.)
TGTCCCTCAATCAATTTGGTTATGTCCTTCATATTTCGTTCGGAGTCACCTAGTGCAG | 18600 fluorescence intensity (a.u.)
GTAATTTATAGTCAAATTTGTTATTTTGTTTCGAATTATACGGAGTCACCTAGTGCAG | 14600 fluorescence intensity (a.u.)

Sequence | binding signal
TAAATTTATCATAATTAATATCAAATGCTTTAGTTTATGCCGGAGTCACCTAGTGCAG | 25900 fluorescence intensity (a.u.)
GCGTGATGAGCTGCCCCGGTCGCGATTGCTGGGCTCCGCTCGGAGTCACCTAGTGCAG | 4430 fluorescence intensity (a.u.)
CAGATTAATTGTTATTCATATATATACATTGACACTCGTTCGGAGTCACCTAGTGCAG | 34500 fluorescence intensity (a.u.)
TTAAAATTGATGGACAACATTAATTATTATTTAAGTAAAACGGAGTCACCTAGTGCAG | 28300 fluorescence intensity (a.u.)
ACGTTTGATATGATAGAATGTAAAGTTTTGGGATGGGATGCGGAGTCACCTAGTGCAG | 6280 fluorescence intensity (a.u.)
TTTTCTGATTAATATGAGAATTTCTAAGCCGTGAGAACGACGGAGTCACCTAGTGCAG | 11800 fluorescence intensity (a.u.)
CTCGATACTTAATTGTCTGCCTTAGACGACGTCCGCAGACCGGAGTCACCTAGTGCAG | 6060 fluorescence intensity (a.u.)
GTCTTCCGCGGCGGCGGCGGGGAAGCGGGCGCGGGCGGGGCGGAGTCACCTAGTGCAG | 8250 fluorescence intensity (a.u.)
GCAGTCCAACCAATCAGCCAAGTTGGTCAAAGGAGAGAGACGGAGTCACCTAGTGCAG | 3950 fluorescence intensity (a.u.)
ACCTTAATCGATCTTAATTAATCGCTAACCTTTATGTCATCGGAGTCACCTAGTGCAG | 21000 fluorescence intensity (a.u.)
CAATTATAACAAAATTGACAGCAAATGGTGCATACTATTTCGGAGTCACCTAGTGCAG | 20500 fluorescence intensity (a.u.)
GGTGTGTTTATAATTAATATACAGATTGTGTCACATTGTTCGGAGTCACCTAGTGCAG | 8600 fluorescence intensity (a.u.)
GTTAACAATTCTTACCCTACCAATCATCTGTTAGACTATTCGGAGTCACCTAGTGCAG | 4790 fluorescence intensity (a.u.)
TAAAATTCCAATTGACAAGTACAATGACAAGATTGGTTACCGGAGTCACCTAGTGCAG | 19900 fluorescence intensity (a.u.)
TAATAAATTTGAGATTAAGACTTTATACATTAAGTGTAATCGGAGTCACCTAGTGCAG | 9220 fluorescence intensity (a.u.)
GCTTATGATAGAATACTGACTATAGCAATATCAGGATATACGGAGTCACCTAGTGCAG | 6330 fluorescence intensity (a.u.)
TAATAATTACCCTAATAATTTGCATGTGCCAAGCTTAGATCGGAGTCACCTAGTGCAG | 39000 fluorescence intensity (a.u.)
TGGTGATGTGTAATTTTGTCTATAACTATTAATGTTAGGGCGGAGTCACCTAGTGCAG | 18300 fluorescence intensity (a.u.)
ACACATAATCACTATCAACTAAACACTTAAATACATCTCACGGAGTCACCTAGTGCAG | 6810 fluorescence intensity (a.u.)
AATTTAGAAAATAATCAACATGATTATAAAACAGATGAAGCGGAGTCACCTAGTGCAG | 5030 fluorescence intensity (a.u.)
TGCCCTTCTCTGCAGGTGATTGCTTAGGAAACAGACCAAGCGGAGTCACCTAGTGCAG | 3660 fluorescence intensity (a.u.)

Sequence | binding signal
CGTCAGTCACCTATCCCAAATTGCTCCAGGCCAAGCACGCCGGAGTCACCTAGTGCAG | 4720 fluorescence intensity (a.u.)
GTTGACTAGTATTTTCTTTCTTTTGATAAGATTTTCCCCACGGAGTCACCTAGTGCAG | 4380 fluorescence intensity (a.u.)
TTAATTGTAAGTTTAACTATTGCTACTTCGCTTGCAGCGTCGGAGTCACCTAGTGCAG | 13600 fluorescence intensity (a.u.)
AAGTGACCGAAATTGAATGAAAATTGTGCCGTCATATTTTCGGAGTCACCTAGTGCAG | 14500 fluorescence intensity (a.u.)
CTATGCAAAATCTATATGATTTGTCCAATTTACCGTTACGCGGAGTCACCTAGTGCAG | 4980 fluorescence intensity (a.u.)
GTGTTGTGATTCAATTAATTTGGCAGACACCAATTTGCTGCGGAGTCACCTAGTGCAG | 23200 fluorescence intensity (a.u.)
CGAACTTTTGTCAATTAATACCGATATTGGCACAATGGCACGGAGTCACCTAGTGCAG | 23700 fluorescence intensity (a.u.)
TCTTAATCTCAATCTAACAACAGTACAGATCAACAAGTTTCGGAGTCACCTAGTGCAG | 4380 fluorescence intensity (a.u.)
CACAAATTTGAACAAACACATTCATGATTCATCCCCTCCACGGAGTCACCTAGTGCAG | 21700 fluorescence intensity (a.u.)
ATGGCAATTACACACCGCCCCATCAGCCCCGTACTCGCTCCGGAGTCACCTAGTGCAG | 3700 fluorescence intensity (a.u.)
AGAAGATTTATAACTTGTTGAGAAAACGTTAATCGTATTGCGGAGTCACCTAGTGCAG | 5330 fluorescence intensity (a.u.)
CTCAAAATTTAAATTTAAGGTTAAAAGTTAAAATTTTACGCGGAGTCACCTAGTGCAG | 21200 fluorescence intensity (a.u.)
GATGTGTTAATTTTGCTTGGCACGATTACAGTTTGGTTACCGGAGTCACCTAGTGCAG | 4010 fluorescence intensity (a.u.)
TTAACATGATGCAAACTTAATTTTGGTCTCACCCTAATGTCGGAGTCACCTAGTGCAG | 7310 fluorescence intensity (a.u.)
CTAAAATTTGATTTTGATCCCTTGCATACCCTTCCCGTCACGGAGTCACCTAGTGCAG | 17500 fluorescence intensity (a.u.)
TAATCGCATTGTAATTAATCACCAAAATCATTAGGGGCCTCGGAGTCACCTAGTGCAG | 5100 fluorescence intensity (a.u.)
TCTAAACCATCGGTCTGATTGTGGCGACCGATCTGGCGTGCGGAGTCACCTAGTGCAG | 3430 fluorescence intensity (a.u.)
TTTGACATATATTTTCTTGGATATGAGTAGGGAATGACTTCGGAGTCACCTAGTGCAG | 8040 fluorescence intensity (a.u.)
AAATTAATCATTTGGGTTAATATAGTCCTTGGACCCAGAACGGAGTCACCTAGTGCAG | 4960 fluorescence intensity (a.u.)
TTCAATTACACAGGTCAATTCGGTTTTCTTAGTGACCAACCGGAGTCACCTAGTGCAG | 6010 fluorescence intensity (a.u.)
AGGTAAATTAAGGTATAGAATTTCAGTTTTATCCATTACGCGGAGTCACCTAGTGCAG | 4700 fluorescence intensity (a.u.)

Sequence | binding signal
AAGATTTCCAGTCATCAGTCTGAGCGAGCTGTGCTTGTTGCGGAGTCACCTAGTGCAG | 3360 fluorescence intensity (a.u.)
TTGTCATTTCCAATCAAAATGACAAAATGTTTGTAGTTTTCGGAGTCACCTAGTGCAG | 8560 fluorescence intensity (a.u.)
ACCTTGATGCCCTTGATTACTTTTAACGTCCTAATTAAGACGGAGTCACCTAGTGCAG | 15900 fluorescence intensity (a.u.)
TATTAAGTGTCAATGATTGAAATGGATGATTTACCATGTGCGGAGTCACCTAGTGCAG | 33200 fluorescence intensity (a.u.)
AATAAATGGTTATGAACTAATGATTGATTGCGATGTAGGACGGAGTCACCTAGTGCAG | 41900 fluorescence intensity (a.u.)
AAGGTTTAATTTGGTCTTTCACGTTTTATTTTGTCCATATCGGAGTCACCTAGTGCAG | 4500 fluorescence intensity (a.u.)
AGATGGCAGTAATTAGTTAATATGCAATTAAATTTAGCGTCGGAGTCACCTAGTGCAG | 16100 fluorescence intensity (a.u.)
CCTATCAACAAATCACAATAATTATCCATTTAATTTCTTCCGGAGTCACCTAGTGCAG | 9260 fluorescence intensity (a.u.)
CAATAATTTCAGCCCGCTAAACTAACCGGCCCACCAACCCCGGAGTCACCTAGTGCAG | 5470 fluorescence intensity (a.u.)
AATTTATGCAATTTGGCCAATTATATATGTGGTTTTGGAACGGAGTCACCTAGTGCAG | 3800 fluorescence intensity (a.u.)
CTAATTTGATGTTGTAAATATTACTATATTTGTCTACAAGCGGAGTCACCTAGTGCAG | 12600 fluorescence intensity (a.u.)
CTAAAGAAATTGAAGAGGCTATCAAGCTCTTGTGGATAGACGGAGTCACCTAGTGCAG | 5350 fluorescence intensity (a.u.)
TCTAATTAGTAAACTGTAGTAGTGAGCAAATTGTACTAGACGGAGTCACCTAGTGCAG | 20900 fluorescence intensity (a.u.)
AAACATCAATGATTATACCAATTTTATAACATTAGACGTACGGAGTCACCTAGTGCAG | 8130 fluorescence intensity (a.u.)
TTTAATTGCGCCTAGAGAAGAAACAAATGTAAATAGGCCTCGGAGTCACCTAGTGCAG | 10900 fluorescence intensity (a.u.)
ACTTGATTTTCTTGATTTACGAGATGGAGTTTTGCCTGTTCGGAGTCACCTAGTGCAG | 29900 fluorescence intensity (a.u.)
TCCTGGTTCACCAATCACCAGCGATGATGACTTCTTGATCCGGAGTCACCTAGTGCAG | 11100 fluorescence intensity (a.u.)
TAGATTGATTATCTTGTCAAGTTGCAGAAAATCCCAGGTACGGAGTCACCTAGTGCAG | 48000 fluorescence intensity (a.u.)
AATACTAATTAATTAATGGAATAAATATACTATAGGATTTCGGAGTCACCTAGTGCAG | 45900 fluorescence intensity (a.u.)
GTATGAATGATTATGAAATTGCCCACGTTTTGGTCTGATTCGGAGTCACCTAGTGCAG | 21100 fluorescence intensity (a.u.)
AACGCATCATGATTGTGTGTTGTAGTGGTGCGTACACATACGGAGTCACCTAGTGCAG | 4380 fluorescence intensity (a.u.)
